Measured values as given in paper PMC6222422, “Synthesis and Biological Evaluation of Novel Indole-Derived Thioureas” (Molecules : A Journal of Synthetic Chemistry and Natural …, 2018).

The molecules below were run on Gram-positive cocci, Gram-negative rods and Candida albicans (assay: In vitro antimicrobial screening (disc diffusion, MIC)). Conditions: SAR discussion.

Row | SMILES | antimicrobial activity (in words)
1 | S=C(NCCc1c[nH]c2ccccc12)NC1CCCCC1 [Compound 9, 1-(2-(1H-Indol-3-yl)ethyl)-3-cyclohexylthiourea] | block both antimicrobial and antiviral activity
2 | S=C(NCCc1c[nH]c2ccccc12)Nc1ccccc1Br [Compound 15, 1-(2-(1H-Indol-3-yl)ethyl)-3-(2-bromophenyl)thiourea] | moderate antimicrobial activity
3 | C=C(C)CNC(=S)NCCc1c[nH]c2ccccc12 [Compound 19, 1-(2-(1H-Indol-3-yl)ethyl)-3-(2-methylallyl)thiourea] | moderate antibacterial activity
4 | CCNC(=S)NCCc1c[nH]c2ccccc12 [Compound 22, 1-(2-(1H-Indol-3-yl)ethyl)-3-ethylthiourea] | block both antimicrobial and antiviral activity
5 | Cc1ccc(NC(=S)NCCc2c[nH]c3ccccc23)cc1Cl [Compound 23, 1-(2-(1H-Indol-3-yl)ethyl)-3-(3-chloro-4-methylphenyl)thiourea] | disappearance of antimicrobial activity
6 | CNC(=S)NCCc1c[nH]c2ccccc12 [Compound 25, 1-(2-(1H-Indol-3-yl)ethyl)-3-methylthiourea] | block both antimicrobial and antiviral activity
7 | Fc1ccc(NC(=S)NCCc2c[nH]c3ccccc23)cc1Cl [Compound 28, 1-(2-(1H-Indol-3-yl)ethyl)-3-(3-chloro-4-fluorophenyl)thiourea] | disappearance of antimicrobial activity
